According to the supplement of paper PMC4967469:
Lines with a small IC50 respond at low doses; a limit (>, <) means that the fit lies beyond the doses tested. The AUC spans the tested range (256-fold, ending at the top dose) of the same fit; values near 1 show little effect. For some assays here: Any top dose called inferred was calculated from the reported fits.

Compound: COCC(=O)NC/C=C/c1ccc2ncnc(Nc3ccc(Oc4ccc(C)nc4)c(C)c3)c2c1 [CP724714]
Experiment: Viability of human cancer cell lines after 72 h of drug (GDSC screen)
Details: top dose 10.24 µM; top dose inferred
Experimental: (§1)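 Human cancer cell lines in 384-well plates, medium with 10% serum, drug for 72 h over a 256-fold dose range (nine 2-fold or five 4-fold steps up to the top dose). Adherent lines were fixed and stained with the nucleic acid dye Syto60, suspension lines read with resazurin; signal relative to control wells, capped at 0 and 100%. One two-parameter sigmoid per drug and line, fitted in a mixed model over all curves with the slope shared within a line.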

| Cell Line | AUC | IC50 |
| --- | --- | --- |
| COR-L311 (small cell lung carcinoma, suspension) | 0.974 | > 10200 nM |
| KASUMI-1 (acute myeloid leukaemia, suspension) | 0.985 | > 10200 nM |

Compound: FC(F)c1nc2ccccc2n1-c1nc(N2CCOCC2)nc(N2CCOCC2)n1 [ZSTK474]
Experiment: as above
Details: not given
Experimental: as §1

| Cell Line | AUC | IC50 |
| --- | --- | --- |
| 8-MG-BA (glioma, adherent, top dose 5.12 µM) | 0.796 | 2220 nM |
| 22RV1 (prostate, adherent, top dose 5.12 µM) | 0.58 | 559 nM |
| 42-MG-BA (glioma, adherent, top dose 5.12 µM) | 0.914 | > 5120 nM |
| 201T (lung adenocarcinoma, adherent, top dose 5.12 µM) | 0.73 | 1740 nM |
| 451Lu (melanoma, adherent, top dose 5.12 µM) | 0.929 | > 5120 nM |
| 639-V (bladder, adherent, top dose 5.12 µM) | 0.982 | > 5120 nM |
| 647-V (bladder, adherent, top dose 5.12 µM) | 0.759 | 1800 nM |
| 697 (lymphoblastic leukaemia, suspension, top dose 5.12 µM) | 0.275 | 86.2 nM |
| 769-P (kidney, adherent, top dose 5.12 µM) | 0.68 | 1070 nM |
| 786-0 (kidney, adherent, top dose 5.12 µM) | 0.679 | 969 nM |
| 5637 (bladder, adherent, top dose 5.12 µM) | 0.72 | 1250 nM |
| 8305C (thyroid, adherent, top dose 5.12 µM) | 0.883 | > 5120 nM |
| 8505C (thyroid, adherent, top dose 5.12 µM) | 0.815 | 3020 nM |
| 23132-87 (stomach, adherent, top dose 5.12 µM) | 0.681 | 1050 nM |
| A3-KAW (B-cell lymphoma, suspension, top dose 5.12 µM) | 0.823 | 2240 nM |
| A4-Fuk (B-cell lymphoma, suspension, top dose 5.12 µM) | 0.793 | 2460 nM |
| A101D (melanoma, adherent, top dose 5.12 µM) | 0.926 | > 5120 nM |
| A172 (glioma, adherent, top dose 5.12 µM) | 0.978 | > 5120 nM |
| A204 (rhabdomyosarcoma, adherent, top dose 5.12 µM) | 0.601 | 657 nM |
| A253 (head and neck, adherent, top dose 5.12 µM) | 0.908 | > 5120 nM |

| Cell Line | AUC | IC50 |
| --- | --- | --- |
| A375 (melanoma, adherent, top dose 5.12 µM) | 0.835 | 2550 nM |
| A388 (skin, adherent, top dose 5.12 µM) | 0.765 | 2150 nM |
| A427 (non-small cell lung carcinoma, adherent, top dose 5.12 µM) | 0.923 | > 5120 nM |
| A431 (skin, adherent, top dose 5.12 µM) | 0.726 | 1360 nM |
| A498 (kidney, adherent, top dose 5.12 µM) | 0.86 | > 5120 nM |
| A673 (rhabdomyosarcoma, adherent, top dose 5.12 µM) | 0.742 | 1440 nM |
| A704 (kidney, adherent, top dose 5.12 µM) | 0.907 | > 5120 nM |
| A2058 (melanoma, adherent, top dose 5.12 µM) | 0.806 | 2270 nM |
| A2780 (ovary, semi-adherent, top dose 5.12 µM) | 0.535 | 400 nM |
| ABC-1 (lung adenocarcinoma, adherent, top dose 5.12 µM) | 0.702 | 1350 nM |
| ACHN (kidney, adherent, top dose 5.12 µM) | 0.784 | 2510 nM |
| AGS (stomach, adherent, top dose 5.12 µM) | 0.871 | 4000 nM |
| ALL-PO (lymphoblastic leukaemia, suspension, top dose 5.12 µM) | 0.415 | 184 nM |
| ALL-SIL (T-cell leukaemia, suspension, top dose 5.12 µM) | 0.394 | 171 nM |
| AM-38 (glioma, semi-adherent, top dose 5.12 µM) | 0.672 | 977 nM |
| AMO-1 (haematopoietic neoplasm, suspension, top dose 5.12 µM) | 0.733 | 1320 nM |
| AN3-CA (endometrium, adherent, top dose 5.12 µM) | 0.778 | 2270 nM |
| ARH-77 (myeloma, suspension, top dose 5.12 µM) | 0.288 | 82.7 nM |
| ASH-3 (thyroid, adherent, top dose 5.12 µM) | 0.91 | > 5120 nM |
| ATN-1 (T-cell lymphoblastic leukaemia, suspension, top dose 5.12 µM) | 0.403 | 177 nM |

| Cell Line | AUC | IC50 |
| --- | --- | --- |
| AU565 (breast, adherent, top dose 5.12 µM) | 0.793 | 2630 nM |
| AsPC-1 (pancreas, adherent, top dose 5.12 µM) | 0.803 | > 5120 nM |
| BB30-HNC (head and neck, adherent, top dose 5.12 µM) | 0.673 | 960 nM |
| BB49-HNC (head and neck, adherent, top dose 5.12 µM) | 0.97 | > 5120 nM |
| BB65-RCC (kidney, adherent, top dose 5.12 µM) | 0.805 | 3060 nM |
| BC-1 (B-cell lymphoma, suspension, top dose 5.12 µM) | 0.493 | 306 nM |
| BC-3 (B-cell lymphoma, suspension, top dose 5.12 µM) | 0.649 | 785 nM |
| BCPAP (thyroid, adherent, top dose 5.12 µM) | 0.766 | 1720 nM |
| BE2-M17 (neuroblastoma, adherent, top dose 5.12 µM) | 0.896 | > 5120 nM |
| BE-13 (lymphoblastic leukaemia, suspension, top dose 5.12 µM) | 0.898 | > 5120 nM |
| BEN (non-small cell lung carcinoma, adherent, top dose 5.12 µM) | 0.818 | 3430 nM |
| BFTC-905 (bladder, adherent, top dose 5.12 µM) | 0.778 | 1780 nM |
| BFTC-909 (kidney, adherent, top dose 5.12 µM) | 0.947 | > 5120 nM |
| BHT-101 (thyroid, adherent, top dose 5.12 µM) | 0.772 | 2040 nM |
| BHY (head and neck, adherent, top dose 5.12 µM) | 0.704 | 1210 nM |
| BICR10 (head and neck, adherent, top dose 5.12 µM) | 0.883 | > 5120 nM |
| BICR22 (head and neck, adherent, top dose 5.12 µM) | 0.796 | 2810 nM |
| BICR31 (head and neck, adherent, top dose 5.12 µM) | 0.918 | > 5120 nM |
| BICR78 (head and neck, adherent, top dose 5.12 µM) | 0.902 | > 5120 nM |
